In all, about 310,000 compounds went through this assay and about 2,200 (0.71%) showed an effect of 50% or more. The effect is printed as a negative number. Some of the results follow.
Biological target: human ether-à-go-go-related gene (hERG) potassium channel (human, UniProt Q12809)
Assay: primary screen, population patch clamp on CHO cells stably expressing hERG

Chain of human ether-à-go-go-related gene (hERG) potassium channel (Q12809 whole entry, looked up): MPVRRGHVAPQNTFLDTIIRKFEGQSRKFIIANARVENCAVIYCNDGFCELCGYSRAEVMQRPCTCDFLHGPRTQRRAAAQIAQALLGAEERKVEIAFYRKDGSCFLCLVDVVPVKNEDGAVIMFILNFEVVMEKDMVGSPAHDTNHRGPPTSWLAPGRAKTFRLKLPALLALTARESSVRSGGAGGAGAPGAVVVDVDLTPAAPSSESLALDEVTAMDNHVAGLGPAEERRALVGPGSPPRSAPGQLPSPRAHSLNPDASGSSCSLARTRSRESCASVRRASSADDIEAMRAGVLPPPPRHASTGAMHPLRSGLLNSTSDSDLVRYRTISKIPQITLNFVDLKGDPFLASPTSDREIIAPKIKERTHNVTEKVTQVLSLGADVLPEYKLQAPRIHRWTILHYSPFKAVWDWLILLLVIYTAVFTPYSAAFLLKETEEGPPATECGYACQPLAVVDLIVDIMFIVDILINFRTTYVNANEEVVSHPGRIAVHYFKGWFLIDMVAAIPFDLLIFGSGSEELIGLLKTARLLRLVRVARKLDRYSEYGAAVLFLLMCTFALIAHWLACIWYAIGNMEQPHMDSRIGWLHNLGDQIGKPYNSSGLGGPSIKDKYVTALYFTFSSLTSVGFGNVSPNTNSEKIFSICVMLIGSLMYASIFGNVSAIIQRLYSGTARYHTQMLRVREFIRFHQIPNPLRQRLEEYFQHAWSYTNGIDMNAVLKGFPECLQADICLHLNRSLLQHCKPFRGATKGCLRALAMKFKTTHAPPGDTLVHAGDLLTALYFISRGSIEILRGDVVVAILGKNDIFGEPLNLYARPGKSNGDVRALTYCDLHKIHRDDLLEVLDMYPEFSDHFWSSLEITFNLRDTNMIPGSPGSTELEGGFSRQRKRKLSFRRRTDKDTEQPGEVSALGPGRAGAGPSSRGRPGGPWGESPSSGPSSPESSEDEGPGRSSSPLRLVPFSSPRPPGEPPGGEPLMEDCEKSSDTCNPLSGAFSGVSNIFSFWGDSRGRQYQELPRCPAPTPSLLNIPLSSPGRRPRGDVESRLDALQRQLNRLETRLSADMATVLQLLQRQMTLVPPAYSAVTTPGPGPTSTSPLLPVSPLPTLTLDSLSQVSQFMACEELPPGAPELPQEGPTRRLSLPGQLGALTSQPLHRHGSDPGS

Row | SMILES | hERG current change (%, negative = inhibition) at 1uM
1 | O=C(C[n+]1cc(-c2ccc(F)cc2)n2c1CCC2)c1cccs1.[Br-] | 12.7%
2 | N#Cc1ccc(CSc2nnc(NC(=O)C3CC(=O)N(c4ccc5c(c4)OCCO5)C3)s2)cc1 (centres unmarked) | 8.99%
3 | CC1=C(C(=O)OC(C)C)C(c2cccnc2)C2=C(CCCC2=O)N1 (centres unmarked) | 11.5%
4 | C=CCn1c(-c2cc(OC)c(OC)c(OC)c2)n[nH]c1=S | 6.57%
5 | Cc1ccc(C(=O)NCCN2CCOCC2)cc1S(=O)(=O)N1CCCCC1 | -6.46%
6 | O=C(Nc1cccc(-c2nnc(-c3ccccc3)o2)c1)c1ccc(Br)o1 | -17.3%
7 | CCc1nn(-c2cc(Oc3ccccc3)nc(-c3ccccc3)n2)c(N)c1C#N | 15.1%
8 | CCOC(=O)N1CCN(C(c2ccc(Cl)cc2)c2sc3nc(C)nn3c2O)CC1 (centres unmarked) | -14.8%
9 | O=C(Nc1ccccc1)Nc1cccc(Cl)c1Cl | 8.64%
10 | COC(c1ccccc1)c1nnc(CCC(=O)NCCCc2ccccc2)o1 (centres unmarked) | 18.5%
11 | CCOC(=O)CC(=O)CSc1nc2sc(C)cc2c(=O)n1Cc1ccco1 | -19%
12 | CCn1c2ccccc2c2cc(NC(=O)c3ccccc3-c3ccccc3C(=O)O)ccc21 | 7.55%
13 | Cc1ccc(-c2cnc(SCC(=O)N3CCCc4ccccc43)n2C)cc1 | 6.36%
14 | O=C1CCCC2=C1C(c1cccs1)n1nc(SCc3ccccc3F)nc1N2 (centres unmarked) | -2.44%
15 | O=C1c2cccc(OCC(=O)N3N=C(c4cccs4)CC3c3ccc(F)cc3)c2CCN1Cc1ccccc1 (centres unmarked) | 1.38%
16 | CCc1noc(C)c1C(=O)N1CCN(S(=O)(=O)c2ccc(Br)cc2)CC1 | -6.81%
17 | CC(C)(O)C(=O)NN(C(=O)c1ccccc1)c1cccc(Br)c1 | 11.3%
18 | O=C(Nc1cc(Cl)ccc1Oc1ccccc1)C1=COCCO1 | 14.2%
19 | C=CCN(c1ccccc1)S(=O)(=O)c1c(C)[nH]c(=O)[nH]c1=O | 12.2%
20 | Cc1c(NC(=O)COC(=O)c2ccc(F)c(S(=O)(=O)N3CCOCC3)c2)c(=O)n(-c2ccccc2)n1C | 8.5%
21 | COc1ccc(CN2CCN(C(=O)c3cc(C4CC4)nn3-c3ccccc3)CC2)cc1F | -2.45%
22 | Cl.Cn1nnnc1SCCNCc1ccc(Cl)cc1 | 2.19%
23 | O=C(c1ccccc1F)c1cc2c(cc1[N+](=O)[O-])OCCO2 | 5.36%
